Assay results from paper PMC4336329 (PLoS ONE, 2015).
About 2,200 (0.71%) of roughly 310,000 compounds showed an effect of 50% or more. The effect is printed as a negative number. This is one part of the list.

The compounds below were run against human ether-à-go-go-related gene (hERG) potassium channel (human, UniProt Q12809) (assay: primary screen, population patch clamp on CHO cells stably expressing hERG).
human ether-à-go-go-related gene (hERG) potassium channel, sequence (Q12809 whole entry, looked up): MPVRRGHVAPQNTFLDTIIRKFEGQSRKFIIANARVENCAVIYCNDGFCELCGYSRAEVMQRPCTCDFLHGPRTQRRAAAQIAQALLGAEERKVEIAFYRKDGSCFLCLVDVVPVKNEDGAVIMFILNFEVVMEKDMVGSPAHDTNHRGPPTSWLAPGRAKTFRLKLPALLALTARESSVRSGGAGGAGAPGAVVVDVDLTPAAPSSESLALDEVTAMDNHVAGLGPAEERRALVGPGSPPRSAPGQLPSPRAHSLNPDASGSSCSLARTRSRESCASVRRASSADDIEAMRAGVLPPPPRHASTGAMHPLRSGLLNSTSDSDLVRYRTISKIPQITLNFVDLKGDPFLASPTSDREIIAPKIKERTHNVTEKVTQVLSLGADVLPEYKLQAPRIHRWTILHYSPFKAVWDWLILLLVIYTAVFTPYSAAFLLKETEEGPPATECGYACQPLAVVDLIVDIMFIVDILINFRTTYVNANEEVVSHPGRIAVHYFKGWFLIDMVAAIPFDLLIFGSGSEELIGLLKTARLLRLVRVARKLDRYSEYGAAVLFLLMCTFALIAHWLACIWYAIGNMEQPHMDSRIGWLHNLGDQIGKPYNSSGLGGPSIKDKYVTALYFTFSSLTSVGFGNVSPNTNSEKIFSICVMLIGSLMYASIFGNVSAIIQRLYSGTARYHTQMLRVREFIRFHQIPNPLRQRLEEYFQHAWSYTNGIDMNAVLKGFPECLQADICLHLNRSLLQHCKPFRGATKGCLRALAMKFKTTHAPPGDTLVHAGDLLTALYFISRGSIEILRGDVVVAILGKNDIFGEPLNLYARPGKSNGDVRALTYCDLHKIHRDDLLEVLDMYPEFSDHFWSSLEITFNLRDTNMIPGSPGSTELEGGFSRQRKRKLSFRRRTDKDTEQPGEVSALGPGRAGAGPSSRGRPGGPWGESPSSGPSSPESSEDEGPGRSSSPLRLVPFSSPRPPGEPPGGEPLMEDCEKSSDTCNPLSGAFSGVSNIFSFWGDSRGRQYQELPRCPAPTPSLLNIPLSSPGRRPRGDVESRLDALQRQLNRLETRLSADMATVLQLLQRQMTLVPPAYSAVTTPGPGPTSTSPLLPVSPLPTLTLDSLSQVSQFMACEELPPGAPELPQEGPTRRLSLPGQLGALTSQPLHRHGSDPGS

Row | SMILES | hERG current change (%, negative = inhibition) at 1uM
1 | COc1nc(-c2ccc3c(c2)OCO3)n(-c2ccc(NC(=O)CSc3ccccc3)cc2)n1 | 1.13%
2 | CCc1ccc(C(=O)NNC(=O)c2cccc(N3C(=O)CCC3=O)c2)cc1 | 16.7%
3 | Cc1ccc(C)c(NC(=O)COC(=O)c2nc(Cl)ccc2Cl)c1 | 4.58%
4 | CCc1cccc(NC(=O)c2cccc3c2C(=O)N(C2CCCCC2)C3)c1 | 17.5%
5 | Cc1cc(Cl)ccc1OC(C)C(=O)NCCc1ccc2c(c1)OCCO2 (stereo not drawn) | -1.35%
6 | O=C(N/N=C/c1ccc(Cl)cc1Cl)C(=O)NC1CC1 | 12.2%
7 | COc1ccc(/C=C2\SC(=N)N(c3nccs3)C2=O)cc1OC | 10.5%
8 | C[C@@H](CO)NC(=O)c1ccc2c3n(nc2c1)-c1ccc(Cl)cc1CO3 | 9.31%
9 | O=C(Nc1nc(-c2ccc3c(c2)OCCO3)cs1)C1CCCC1 | 8.23%
10 | O=C(NCCN1CCOCC1)c1cccc(Br)c1 | 8.4%
11 | c1ccc2c(c1)[nH]c1c3ccccc3sc21 | 15.7%
12 | O=C(COC(=O)c1ccc[nH]c1=O)Nc1ccc(S(=O)(=O)N2CCCC2)cc1 | 9.71%
13 | CC(C)CNCC(=O)N1c2ccccc2Sc2ccccc21.O=C(O)C(=O)O | 9.68%
14 | COc1cccc2cc(C(=O)OC3CCN(C)CC3)c(=O)oc12 | 5.74%
15 | Cc1cccc(CCNC(=O)CN(C)S(=O)(=O)c2cnc[nH]2)c1 | 13%
16 | O=C(NCCN1CCOCC1)c1cc(Cl)ccc1Cl | 7.78%
17 | CCOc1ccccc1-n1c(O)c(C=NCc2ccc3c(c2)OCO3)c(=O)[nH]c1=O | 5.63%
18 | CCOc1ccc(NC(=O)CSCc2cnn(-c3ccccc3)c2-n2cccc2)cc1 | -1.74%
19 | O=C(CCn1cnnn1)Nc1ccc(Cl)c(Cl)c1 | 16.5%
20 | CCCNS(=O)(=O)c1ccc(CCC(=O)N2CCOCC2)cc1 | 15.1%
21 | COCCn1c(SCC(=O)c2c(N)n(C3CC3)c(=O)[nH]c2=O)nc2ccccc21 | 15.5%
22 | O=C(c1ccco1)N1CCCC(c2nc3c(nnn3Cc3ccccc3)c(=O)[nH]2)C1 (stereo not drawn) | 17.9%
23 | CCCC(C)C(=O)NC1CCSC1=O (stereo not drawn) | -0.703%

Row | SMILES | hERG current change (%, negative = inhibition) at 1uM
24 | CNC(=O)N1c2ccccc2NC(=O)CC1C (stereo not drawn) | 7.74%
25 | COc1ccc(-n2c(-c3cccc(OC)c3)nc(=S)c3c2CCCC3)cc1 | 11.3%
26 | O=C(/C=C/c1ccc(OCCCF)cc1)NCc1cccc(Cl)c1 | 3.21%
27 | COc1ccc(NC(=O)C(=O)NCC(c2ccco2)N2CCc3ccccc3C2)cc1 (stereo not drawn) | -0.912%
28 | O=S(=O)(NC1CCCC1)OCC(Cl)(Cl)Cl | 5.14%
29 | O=C1CCN(C(=O)c2ccc(Cl)cc2)N1 | -14.1%
30 | COc1ccc(N2CCN(CCCNS(=O)(=O)c3ccc4c(c3)oc(=O)n4C)CC2)cc1 | 0.0978%
31 | CCc1nnc(NC(=O)c2nc(S(=O)(=O)Cc3cccc(C)c3)ncc2Cl)s1 | 5.73%
32 | Cc1cccc(N2CCN(C(=O)CCS(=O)(=O)c3ccc(Br)cc3)CC2C)c1 (stereo not drawn) | 5.34%
33 | COc1ccc(OC)c(CNCc2ccc3c(c2)OCO3)c1.O=C(O)C(=O)O | 5.04%
34 | COc1ccc2[nH]c(C(=O)N3CCCN(Cc4ccc(F)cc4)CC3)cc2c1 | 9.35%
35 | O=[N+]([O-])c1ccccc1S(=O)(=O)NC1CCCCCCC1 | 7.01%
36 | Cc1c(C(=O)N2CCOCC2)c(S(=O)(=O)Nc2cccc(C#N)c2)c(C)n1C | 15.6%
37 | O=C1CC(c2ccsc2)c2ccc3ccccc3c2N1 (stereo not drawn) | 11.3%
38 | COc1ccc(OC)c(NC(=O)CN(C)S(=O)(=O)c2ccc3nc(C)sc3c2)c1 | 0.767%
39 | CCn1c(N)c(C(=O)NCCCOC)sc1=S | 21.6%
40 | Cc1ccc(Cl)cc1N1CCN(Cc2cc3c(cc2O)CCC3)CC1 | 4.19%
41 | CCOC(=O)C1CCN(C(=O)COC(=O)c2ccc3c(c2)C(=O)N(c2ccc(OCC)cc2)C3=O)CC1 | 8.6%
42 | COc1ccc(CNC(=O)[C@H](Cc2ccccc2)NC(=O)C2CCNCC2)cc1 | 18.2%
43 | Cc1ccc(C(=O)NCC(=O)Nc2ccc3c(c2)OCCO3)cc1 | 19.4%
44 | Cc1ccc(/C=C2/C(=O)NC(=O)N(CCc3ccc(F)cc3)C2=O)s1 | 11.9%
45 | Cc1ccc(CNC(=O)CC(C)S(=O)(=O)c2ccc3c(c2)NC(=O)C(C)S3)cc1 (stereo not drawn) | -1.7%
46 | Brc1ccc(OCCCN2CCOCC2)cc1.O=C(O)C(=O)O | -4.29%

Row | SMILES | hERG current change (%, negative = inhibition) at 1uM
47 | CC(C)C(C(=O)NCC1CCCO1)N(C(=O)CNS(=O)(=O)c1ccccc1)c1ccc(F)cc1 (stereo not drawn) | 13.7%
48 | CCN(CC)S(=O)(=O)c1cccc(C(=O)OCC(=O)Nc2ccccc2OC(F)F)c1 | 4.6%
49 | O=C(c1ccccc1Oc1ccc([N+](=O)[O-])cc1)N1CCOCC1 | -4.32%
50 | COc1ccc(S(=O)(=O)Nc2cc3c4c(c2)CCC(=O)N4CCC3)cc1 | -3.7%
51 | CSCC(=O)NC1CCCc2c1cnn2-c1cc(F)cc(F)c1 (stereo not drawn) | 8.16%
52 | CC(C)(C)c1ccc(-n2ncc3c2CCCC3NC(=O)CN2CCCCC2=O)cc1 (stereo not drawn) | 20.1%
53 | O=C(O)c1ccc(C(=O)Nc2cccc3ccccc23)c(C(=O)O)c1 | 12.5%
54 | CC(Sc1ccc(S(=O)(=O)N2CCN(C)CC2)cn1)C(=O)NC1CCCCC1 (stereo not drawn) | 5.07%
55 | Cc1noc(C)c1CSCC(=O)Nc1ccc(Br)cc1Cl | -11.6%
56 | Cc1cccc(NC(=O)c2onc3c2CCCC3)c1C | 8.78%
57 | CCOP(=S)(OCC)SCC(=O)NC(C(=O)O)C(C)C (stereo not drawn) | 9.01%
58 | O=C(Nc1ccc2c(c1)OCCO2)c1cncc(Br)c1 | 6.64%
59 | O=C(Oc1ccccc1)N1CCCC1 | 14.4%
60 | CCOc1ccc(Nc2nc(NCC3CCCO3)c3ccccc3n2)cc1.Cl (stereo not drawn) | -19%
61 | CCOC(=O)c1c(CN2CCN(C)CC2)n(C)c2cc(Br)c(OC)cc12 | -12.4%
62 | O=C(COC(=O)CCSc1ccc(Cl)cc1)NCc1ccccc1Cl | -0.039%
63 | CN1CCC(=NNC(=O)C(=O)Nc2cccc(Br)c2)CC1 | 11.5%
64 | Cc1ccc(NC(=O)c2ccc(=O)n(CC(=O)Nc3c(C)cc(C)cc3C)n2)cc1 | -0.321%
65 | O=C(CSc1nc(C(F)(F)F)cc(=O)[nH]1)N1CCOCC1 | 10.6%
66 | Cc1ccc2c(Cl)cc(Cl)c(OCC(=O)NC(C)(C)C)c2n1 | 10.8%
67 | O=C(Nc1cccnc1)c1sc(Nc2ccccc2)nc1-c1ccccc1 | 9.25%
68 | C=C(c1ccc(O)cc1)c1ccc(O)cc1 | -0.0175%
69 | CC(C)CC(=O)Nc1ccc(OCC(=O)O)cc1 | 2.73%

Row | SMILES | hERG current change (%, negative = inhibition) at 1uM
70 | CC(NCc1ccc(OCC(N)=O)cc1)C12CC3CC(CC(C3)C1)C2.Cl (stereo not drawn) | 9.06%
71 | N#CCCn1cc(C(=O)Nc2ccc(F)cc2)c(-c2ccc([N+](=O)[O-])cc2)n1 | 6.48%
72 | O=C1C2CCCCC2C(=O)N1c1ccc(NC2CCN(Cc3ccccc3)CC2)c([N+](=O)[O-])c1 (stereo not drawn) | -0.582%
73 | CCSc1oc(-c2ccccc2)nc1S(=O)(=O)c1ccccc1 | 8.1%
74 | Fc1cccc(CCNCc2ccccn2)c1 | 11.3%
75 | O=C(N=Nc1c(O)[nH]c2ccccc12)c1cccc(S(=O)(=O)N2CCCCC2)c1 | 5.9%
76 | COc1ccc(C2CC(C(F)(F)F)n3ncc(C(=O)Nc4c(C)n(C)n(-c5ccccc5)c4=O)c3N2)cc1 (stereo not drawn) | 14.4%
77 | COc1ccccc1/C=N/N=C(/N)N[N+](=O)[O-] | 6.95%
78 | COc1ccc(S(N)(=O)=O)cc1N(C)S(=O)(=O)c1ccccc1 | 16.1%
79 | CC(=O)c1cccc(NC(=O)CN(Cc2ccccc2)S(C)(=O)=O)c1 | 6.95%
80 | O=C(Nc1ccc(C(=O)O)cc1)/C(=C\c1ccco1)NC(=O)c1ccccc1 | 13.9%
81 | CCOc1ccc(S(=O)(=O)N(CC(=O)N/N=C/c2cccs2)c2ccc(C)cc2)cc1 | 0.735%
82 | Cn1c(=O)c2ncn(CC(=O)N/N=C/c3ccco3)c2n(C)c1=O | 10.7%
83 | O=C(O)c1cccc2c1C(=O)c1cc(Br)ccc1S2(=O)=O | 13%
84 | O=C(c1ccc(Cl)cc1)c1ccc(CN2C(=O)c3ccccc3C2=O)o1 | 9.77%
85 | COc1ccc2ccccc2c1CNC(=O)CC1C(=O)NCCN1CC(C)C (stereo not drawn) | -4.95%
86 | CCOC(=O)C1CCN(c2ccc(Cl)nn2)CC1 | 0.0696%
87 | COc1ccc(Nc2cc(C)nc(N)n2)cc1 | 10.4%
88 | CC1CCN(CCn2c(=S)[nH]c3ccccc3c2=O)CC1 | 1.9%
89 | COc1ccc(C(=O)NC2CCN(C(=S)Nc3cc(C)cc(C)c3)CC2)cc1 | 11.8%
90 | O=C(O)CSc1ccccn1 | 15.3%
